# In the supplement of paper PMC12645437, “Orthogonal IMiD-Degron Pairs Induce Selective Protein Degradation in Cells” (ACS Chemical Biology, 2025):
# This is one part of the list.
# B1: Q9UKT9 (peptide)
# chain: FVCDQCGANFTQKGNLLRHIKL
# B2: Q9UKT9 (peptide)
# chain: FHCPICGRWFTQKGNLLRHIKL
# B3: Q9UKT9 (peptide)
# chain: FTCPQCGAFFTQKGNLLRHIKL
# B4: Q9UKT9 (peptide)
# chain: LKCNQCGFGCTQKGNLLRHIKL
# B5: Q9UKT9 (peptide)
# chain: FNCNVCGAFFTQKGNLLRHIKL
# B6: Q9UKT9 (peptide)
# chain: FICEICGHKFTQKGNLLRHIKL
# B7: Q9UKT9 (peptide)
# chain: FTCNQCGALFTQKGNLLRHIKL
# B8: Q9UKT9 (peptide)
# chain: FKCEICGRSFTQKGNLLRHIKL
# B9: Q9UKT9 (peptide)
# chain: FMCEQCGAYFTQKGNLLRHIKL
# B10: Q9UKT9 (peptide)
# chain: FECNICGARFTQKGNLLRHIKL
# B11: Q9UKT9 (peptide)
# chain: LECPICGFQCTQKGNLLRHIKL
# B12: Q9UKT9 (peptide)
# chain: FSCNQCGADFTQKGNLLRHIKL
# B13: Q9UKT9 (peptide)
# chain: FYCPICGAIFTQKGNLLRHIKL
# B14: Q9UKT9 (peptide)
# chain: FLCNQCGALFTQKGNLLRHIKL
# B15: Q9UKT9 (peptide)
# chain: FFCEQCGAWFTQKGNLLRHIKL
# B16: Q9UKT9 (peptide)
# chain: FACPQCGATFTQKGNLLRHIKL
# B17: Q9UKT9 (peptide)
# chain: LRCPICGFPCTQKGNLLRHIKL
# B18: Q9UKT9 (peptide)
# chain: FKCEQCGAEFTQKGNLLRHIKL
# B19: Q9UKT9 (peptide)
# chain: FLCEICGAMFTQKGNLLRHIKL
# B20: Q9UKT9 (peptide)
# chain: FRCNICGASFTQKGNLLRHIKL
# B21: Q9UKT9 (peptide)
# chain: FGCEQCGAHFTQKGNLLRHIKL
# B22: Q9UKT9 (peptide)
# chain: FCCDICGAKFTQKGNLLRHIKL
# B23: Q9UKT9 (peptide)
# chain: FYCDQCGAHFTQKGNLLRHIKL
# B24: Q9UKT9 (peptide)
# chain: FICNQCGRWFTQKGNLLRHIKL
# B25: Q9UKT9 (peptide)
# chain: FGCPVCGAEFTQKGNLLRHIKL
# B26: Q9UKT9 (peptide)
# chain: FYCDQCGAWFTQKGNLLRHIKL
# B27: Q9UKT9 (peptide)
# chain: FQCSVCGHVFTQKGNLLRHIKL
# B28: Q9UKT9 (peptide)
# chain: FRCPQCGAFFTQKGNLLRHIKL
# B29: Q9UKT9 (peptide)
# chain: FKCEVCGAIFTQKGNLLRHIKL
# B30: Q9UKT9 (peptide)
# chain: FECPICGHQFTQKGNLLRHIKL
# B31: Q9UKT9 (peptide)
# chain: LYCEICGFECTQKGNLLRHIKL
# B32: Q9UKT9 (peptide)
# chain: FYCEVCGAFFTQKGNLLRHIKL
# B33: Q9UKT9 (peptide)
# chain: FICEQCGALFTQKGNLLRHIKL
# B34: Q9UKT9 (peptide)
# chain: FDCEVCGAIFTQKGNLLRHIKL
# B35: Q9UKT9 (peptide)
# chain: FWCPICGHCFTQKGNLLRHIKL
# B36: Q9UKT9 (peptide)
# chain: FWCNQCGAFFTQKGNLLRHIKL
# B37: Q9UKT9 (peptide)
# chain: FACPICGACFTQKGNLLRHIKL
# B38: Q9UKT9 (peptide)
# chain: FLCPQCGAPFTQKGNLLRHIKL
# B39: Q9UKT9 (peptide)
# chain: LDCPICGFSCTQKGNLLRHIKL
# B40: Q9UKT9 (peptide)
# chain: FDCPICGRPFTQKGNLLRHIKL
# B41: Q9UKT9 (peptide)
# chain: FLCDVCGAAFTQKGNLLRHIKL
# B42: Q9UKT9 (peptide)
# chain: FWCPICGALFTQKGNLLRHIKL
# B43: Q9UKT9 (peptide)
# chain: FKCEQCGANFTQKGNLLRHIKL
# B44: Q9UKT9 (peptide)
# chain: FWCPICGRFFTQKGNLLRHIKL
# B45: Q9UKT9 (peptide)
# chain: FFCDVCGAVFTQKGNLLRHIKL
# B46: Q9UKT9 (peptide)
# chain: LTCEICGFQCTQKGNLLRHIKL
# B47: Q9UKT9 (peptide)
# chain: FECSVCGHDFTQKGNLLRHIKL
# B48: Q9UKT9 (peptide)
# chain: LRCPICGFICTQKGNLLRHIKL
# B49: Q9UKT9 (peptide)
# chain: FHCPICGRPFTQKGNLLRHIKL
# B50: Q9UKT9 (peptide)
# chain: FCCNQCGAQFTQKGNLLRHIKL
# Target: no compound (DMSO)
# Assay: log2 fold change of degron read counts, EGFP-low vs EGFP+ sorted cells; higher = lower degron-EGFP level without compound (poor expression or instability)
# Settings: compound: DMSO control; 18 h
# 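Note: jurkat cells carrying a lentiviral library of mutant zinc finger degrons fused to EGFP plus mCherry, mCherry+ cells FACS sorted, degron abundance counted by next-generation sequencing.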
row,Sequence,log2 fold change of degron read counts
1,B1,-1.73
2,B2,0.196
3,B3,0.377
4,B4,0.718
5,B5,-0.017
6,B6,-1.27
7,B7,-0.518
8,B8,-1.73
9,B9,-0.894
10,B10,-1.1
11,B11,0.537
12,B12,-1.15
13,B13,0.837
14,B14,0.319
15,B15,-0.262
16,B16,-0.761
17,B17,3.52
18,B18,-2.12
19,B19,-1.12
20,B20,-0.361
21,B21,-0.798
22,B22,-0.446
23,B23,-1.28
24,B24,0.908
25,B25,-0.403

row,Sequence,log2 fold change of degron read counts
1,B26,0.185
2,B27,-0.227
3,B28,-0.322
4,B29,-1.95
5,B30,-1.93
6,B31,0.0412
7,B32,0.0341
8,B33,-0.931
9,B34,-0.719
10,B35,1.83
11,B36,1.67
12,B37,-0.0962
13,B38,-0.475
14,B39,0.0451
15,B40,-0.619
16,B41,-0.302
17,B42,1.13
18,B43,-0.657
19,B44,0.773
20,B45,0.407
21,B46,-0.846
22,B47,-0.974
23,B48,0.869
24,B49,-0.313
25,B50,-1.59
